Laboratory results from PubChem BioAssay AID463173 (ICCB-Longwood Screening Facility, Harvard Medical School, 2010).
Out of some 52,000 compounds screened, about 1,700 (3.3%) were called active. Cut-off read from the data, not from the text of the source: active = survival mostly below about 52% (no sharp cut-off); inactive = mostly above about 56%. The list shows a part of the results.

Tested on: Wild type
Assay: growth inhibition of S. aureus wild type versus tarO mutant, primary screen, teichoic acid synthesis inhibitors, RN4220, OD600 (AID 463173)
Settings: S. aureus RN4220 wild type/DeltatarO growth, OD600, 18 h, stronger effect = lower value, screened at 18.75 µg/mL (by protocol)

Q: Which survival does the source give for `O=C(CSc1nc2ccsc2c(=O)n1Cc1ccc(F)cc1)NCc1ccc(Cl)cc1` here?
A: Its survival is inactive: 81%.

Q: `CC1=C(C(=O)Nc2ccc(C)cc2C)C(c2ccccc2)n2nc(SCC(=O)c3ccc(C)cc3)nc2N1` (configuration not stated) was tested. Which survival did it give?
A: Its survival is inactive: 136%.

Q: For `Cc1cc(Nc2ccc(Br)cc2)n2nc(-c3ccccc3C)nc2n1`, which survival is on record?
A: The survival was inactive: 62%.

Q: Which survival does the source give for `CN1c2ccc(Cl)cc2-c2nc(SCC(=O)NCc3ccc(F)cc3)ncc2S1(=O)=O` here?
A: Its survival is inactive: 121%.

Q: With `CCCCCCOc1ccc(/C=C/C(=O)Nc2sc3c(c2C(=O)OC)CCC3)cc1OC` as the compound, how does the survival read?
A: Its survival is inactive: 70%.

Q: Which survival does the source give for `CCc1ccccc1NC(=O)CCNS(=O)(=O)c1ccc2c(c1)CCCC(=O)N2` here?
A: Its survival is inactive: 73%.

Q: With `COc1ccc(NC(=O)Cn2c(=O)oc3ccccc32)cc1` as the compound, how does the survival read?
A: The survival was inactive: 73%.

Q: With `Cc1nccn1C(=O)c1ccccc1C(=O)O` as the compound, how does the survival read?
A: Its survival is inactive: 112%.

Q: For `Cc1nn(C)c2c1c(C(F)(F)F)cc(=O)n2CC(=O)NCc1ccc(OC(C)C)cc1`, which survival is on record?
A: The survival was inactive: 138%.

Q: For `Cn1c(CNc2ccc(Cl)cc2)nnc1SCc1ccc(Cl)cc1`, which survival is on record?
A: The survival was inactive: 99%.

Q: Which survival does the source give for `CCC(C)c1ccc(OCC(=O)Nc2cccc3ccc(C)nc23)cc1` (configuration not stated) here?
A: Its survival is active: -12%.

Q: With `CCC(C)NC(=O)c1cc2cc(S(=O)(=O)N3CCCCC3)ccc2n1C` (configuration not stated) as the compound, how does the survival read?
A: The survival was active: 14%.

Q: How did the survival turn out when `CCN1CCN(c2ncc3c(n2)CCN(Cc2cc(Br)cs2)C3)CC1` was run?
A: The survival was active: 1%.

Q: `O=C(NCC(c1ccc2c(c1)OCO2)N1CCOCC1)c1ccccc1` (configuration not stated) was tested. Which survival did it give?
A: The survival was inactive: 131%.

Q: Which survival does the source give for `Cc1c(O)nc(SCC(=O)Nc2ccc(Cl)cc2Cl)n(-c2ccc(F)cc2)c1=O` here?
A: Its survival is inactive: 62%.

Q: For `CC(C)(C)c1ccc(CSC2=Nc3ccccc3C3=NC(CC(=O)NCc4cccs4)C(=O)N23)cc1` (configuration not stated), which survival is on record?
A: The survival was inactive: 54%.

Q: For `Cc1cn(C)c(CC(=O)NCc2cccc(Cl)c2)c1C(=O)O`, which survival is on record?
A: Its survival is active: -3%.

Q: Which survival does the source give for `O=C(OC(C(=O)NCC1CCCO1)c1ccc(F)cc1)c1ccco1` (configuration not stated) here?
A: Its survival is inactive: 100%.

Q: With `COc1cc(Cn2c(=O)oc3ccc(C)cc32)ccc1OCCC(C)C` as the compound, how does the survival read?
A: The survival was active: -7%.

Q: `CC(C)(C)c1ccc(S(=O)(=O)N2CCC(Oc3ccc(-n4cnnn4)cc3)CC2)cc1` was tested. Which survival did it give?
A: The survival was inactive: 81%.

Q: For `O=C(CNC(=O)c1ccc(Cl)cc1)OCc1cc(=O)n2nc(C3CC3)sc2n1`, which survival is on record?
A: The survival was inactive: 80%.

Q: Which survival does the source give for `Cc1ccc(CNS(=O)(=O)c2ccc(N3CCCCS3(=O)=O)cc2)cc1` here?
A: The survival was inactive: 92%.

Q: How did the survival turn out when `COc1ccc(Nc2oc(-c3ccc(COc4cccc(C)c4)o3)nc2C#N)cc1` was run?
A: Its survival is inactive: 116%.

Q: For `COC(=O)c1cc(NC(=O)CCc2c(C)nc3c(c(C)nn3C(C)(C)C)c2C)cc(C(=O)OC)c1`, which survival is on record?
A: Its survival is inactive: 74%.

Q: For `COC(=O)COc1ccc(C2C(C(=O)OC)=C(C)NC3=C2C(=O)c2ccccc23)cc1OC` (configuration not stated), which survival is on record?
A: The survival was inactive: 57%.

Q: `Cn1nnnc1SCCCNCc1ccc(Cl)cc1` was tested. Which survival did it give?
A: The survival was inactive: 85%.

Q: `CC(C)c1ccc(C2Sc3ccccc3NC3=C2C(=O)c2ccccc23)cc1` (configuration not stated) was tested. Which survival did it give?
A: The survival was inactive: 90%.

Q: `CCN(CC)CC#CC1(O)CCCCC1` was tested. Which survival did it give?
A: Its survival is inactive: 107%.

Q: Which survival does the source give for `Cc1cc(C)c2c(c1)NC(=O)C2(O)c1c[nH]c2ccccc12` (configuration not stated) here?
A: Its survival is inactive: 97%.

Q: For `Cc1ccc2c(c1)cc1c(=O)n(Cc3cccc(Cl)c3)nc(C)n12`, which survival is on record?
A: Its survival is inactive: 91%.

Q: How did the survival turn out when `COc1ccc(CCNC(=O)Cc2c(C)c3cc4c(C(C)(C)C)coc4c(C)c3oc2=O)cc1OC` was run?
A: The survival was inactive: 84%.

Q: `Cc1nc(N2CCOCC2)c2c(C(=O)N3CCN(c4ccccc4F)CC3)c(C)oc2n1` was tested. Which survival did it give?
A: Its survival is inactive: 95%.

Q: How did the survival turn out when `Cc1ccc(CN2COc3ccc4c(C)cc(=O)oc4c3C2)cc1` was run?
A: The survival was inactive: 66%.

Q: How did the survival turn out when `Cc1ccc2nc(NN)nc(-c3ccccc3)c2c1` was run?
A: Its survival is inactive: 100%.

Q: `O=C(Nc1cc(Cl)ccc1Cl)c1cc(S(=O)(=O)NCCc2ccccc2)ccc1F` was tested. Which survival did it give?
A: The survival was inactive: 133%.

Q: Which survival does the source give for `CC1CCc2onc(C(=O)N3CCN(c4ccccc4)CC3)c2C1` (configuration not stated) here?
A: The survival was inactive: 121%.

Q: `O=C(COc1ccccc1F)Nc1ccccc1C(=O)OCc1cc(=O)n2nc(C3CC3)sc2n1` was tested. Which survival did it give?
A: The survival was inactive: 92%.

Q: With `O=C(NCc1ccc(Cl)cc1)c1cc2c(s1)-c1ccccc1SC2` as the compound, how does the survival read?
A: Its survival is inactive: 62%.

Q: With `COc1ccc(-c2nc3c(c(SCC(=O)Nc4cccc(O)c4)n2)Cc2c(CO)cnc(C)c2O3)cc1` as the compound, how does the survival read?
A: Its survival is inactive: 115%.

Q: `Cc1ccc(C(=O)N(Cc2ccco2)Cc2sccc2C)cc1` was tested. Which survival did it give?
A: Its survival is inactive: 80%.

Q: With `CCc1ccccc1NC(=O)Cn1c(=O)n(Cc2ccco2)c(=O)c2ccccc21` as the compound, how does the survival read?
A: Its survival is inactive: 96%.

Q: `COc1ccc(-c2c(C#N)c(SCC(=O)Nc3cccc(Cl)c3)nc(C)c2C(=O)Nc2ccccc2)cc1OC` was tested. Which survival did it give?
A: Its survival is inactive: 147%.

Q: With `COc1cc(OC)cc(C(=O)Nc2cc3c(cc2N2CCCCC2)n(C)c(=O)n3C)c1` as the compound, how does the survival read?
A: The survival was inactive: 83%.

Q: Which survival does the source give for `COc1ccc(CNC(=O)c2cnc3sc(N4CCC(C)CC4)nn3c2=O)c(OC)c1` here?
A: The survival was inactive: 83%.

Q: Which survival does the source give for `CCc1ccc(NC(=O)C2CCN(c3nn4cc(-c5ccc(OC)cc5)nc4s3)CC2)cc1` here?
A: The survival was inactive: 71%.

Q: Which survival does the source give for `Cc1ccc(N2C(=O)CC(c3ccccc3F)C3=C2COC3=O)cc1Cl` (configuration not stated) here?
A: Its survival is inactive: 150%.

Q: For `CCN(CC)C(=O)Cn1c(=O)n(-c2ccc(Cl)c(Cl)c2)c(=O)c2c(C)c(C(=O)N(CC)CC)sc21`, which survival is on record?
A: The survival was inactive: 84%.

Q: For `Cc1cccc(S(=O)(=O)Nc2cccc(-c3ccc(N4CCCCC4)nn3)c2)c1`, which survival is on record?
A: The survival was inactive: 69%.

Q: Which survival does the source give for `CCc1nnc2c(N3CCN(c4cccc(C)c4)C(C)C3)nc3ccccc3n12` (configuration not stated) here?
A: Its survival is inactive: 80%.

Q: With `COc1cccc(OCc2nnc(SCC(=O)O)o2)c1` as the compound, how does the survival read?
A: The survival was inactive: 98%.

Q: For `N#CC1=C(N)OC2=C(CCc3ccccc32)C1c1ccccc1` (configuration not stated), which survival is on record?
A: Its survival is inactive: 29%.

Q: `COc1ccc(C2C=C(c3ccc(F)cc3)Nc3nc(-c4ccc(Cl)cc4)nn32)cc1` (configuration not stated) was tested. Which survival did it give?
A: Its survival is inactive: 105%.

Q: Which survival does the source give for `COc1ccc(NC(=O)c2ccc3c(c2)N(Cc2cccc(Cl)c2)C(=O)c2ccccc2S3=O)cc1Cl` (configuration not stated) here?
A: Its survival is inactive: 118%.

Q: Which survival does the source give for `CC1CCN(c2nc3c(S(=O)(=O)c4ccccc4)nnn3c3ccc(Cl)cc23)CC1` here?
A: The survival was inactive: 76%.

Q: With `COc1cccc(Cc2nc3ccccc3nc2SCC(=O)NCCc2ccccc2)c1` as the compound, how does the survival read?
A: Its survival is inactive: 68%.

Q: With `COC(=O)C1=C(C)NC(C)=C(C(=O)OC)C1c1cn(-c2ccccc2)nc1-c1ccco1` as the compound, how does the survival read?
A: The survival was inactive: 111%.

Q: Which survival does the source give for `Cc1ccc(-c2nc3ccccc3[nH]2)cc1NC(=O)COc1ccccc1[N+](=O)[O-]` here?
A: The survival was inactive: 92%.
